Reference: PubChem BioAssay AID2202238 (Ras Initiative Chemistry Research Team, Frederick National …, 2025)
This is one part of the list. These are further read-outs of the screen, such as a control signal, another cell line or another target. No call is given for them.

Target: GTPase KRas (Homo sapiens) (UniProt P01116)
Test: Cysteine mutants labelled by reactive fragments (mass read-out) (AID 2202238)
Design: protein at 5 µM with 500 µM competing thiol for 1.5 h
Conditions: KRAS G12D cysteine mutants, disulfide tethering, MALDI-TOF labeling, stronger effect = higher value, fragment at 500 µM
[1] = measured here: G60C mutant labeling
[2] = measured here: G75C mutant labeling
[3] = measured here: H94C mutant labeling
[4] = measured here: I36C mutant labeling
[5] = measured here: L120C mutant labeling
[6] = measured here: M67C mutant labeling
[7] = measured here: M72C mutant labeling
[8] = measured here: N26C mutant labeling
[9] = measured here: N86C mutant labeling
[10] = measured here: P121C mutant labeling
[11] = measured here: S122C mutant labeling
[12] = measured here: S136C mutant labeling

Chain of UniProt P01116 (P01116 whole entry, looked up, the tested form may be a part): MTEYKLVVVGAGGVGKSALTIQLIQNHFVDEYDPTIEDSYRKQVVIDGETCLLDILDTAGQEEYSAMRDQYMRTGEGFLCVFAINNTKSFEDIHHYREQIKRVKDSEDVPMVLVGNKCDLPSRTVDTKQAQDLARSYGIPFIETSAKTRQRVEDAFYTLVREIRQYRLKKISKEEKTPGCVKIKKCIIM

Structure (SMILES) | percent labeling [1] [%] | percent labeling [2] [%] | percent labeling [3] [%] | percent labeling [4] [%] | percent labeling [5] [%] | percent labeling [6] [%] | percent labeling [7] [%] | percent labeling [8] [%] | percent labeling [9] [%] | percent labeling [10] [%] | percent labeling [11] [%] | percent labeling [12] [%]
O=C(NC1(C(=O)NCCS)CCCC1)c1n[nH]c2ccccc12 | 45.8 | 9.8 | 25.4 | 16.7 | 34.3 | 53.5 | 18.4 | 29.6 | 23.2 | 16 | 13.9 | 23.9
Cc1nc(CN2CCC(C(=O)NCCS)CC2)cs1 | 36 | 13.8 | 38.4 | 36.7 | 40.1 | 41 | 19.4 | 42.8 | 30.7 | 32.5 | 30.3 | 49.2
CCOc1cc2c(c3[nH]c(C(=O)NCCS)cc13)OC(C)C2 (stereo unspecified) | 10.5 | 5.5 | 8.9 | 9.2 | 9.9 | 7.7 | 12.6 | 18.4 | 0 | 9.2 | 5.9 | 8.3
COC(=O)C1(C2=CCN(C(=O)CCS)CC2)CC1 |  | 15.2 | 24.8 | 26.8 | 25.7 | 29.7 | 33.7 |  | 19.7 | 28.2 | 25.4 | 53.8
NC(=O)c1ccc(N2CCN(C(=O)CCS)CC2)nc1 |  | 16.7 | 34.8 | 46.5 | 31.9 | 46.6 | 33.5 |  | 31.2 | 33.9 | 31.8 | 58.7
O=C(NCCS)c1cc2cccc(Cl)c2o1 | 24.1 | 19.4 | 16.6 | 8.2 | 11.1 | 10.9 | 30.3 | 28.2 | 7.5 | 13.4 | 9.6 | 17
CC1(C)C(=O)Nc2cc(C(=O)NCCS)ccc21 | 39.2 | 27.8 | 37 | 29 | 41.6 | 35.5 | 64.2 | 49.3 | 31.3 | 29.6 | 33.4 | 55.4
Cc1nc2cc(C(=O)NCCS)ccc2n1Cc1ccsc1 | 26.9 | 16.4 | 18.6 | 9.5 | 14.2 | 22.2 | 32 | 40.6 | 15.8 | 10.6 | 10 | 18.2
O=C(Cc1ccccc1Br)NCCS | 59.7 | 17.7 | 35.1 | 25.1 | 38.5 | 31.9 | 47.8 | 38.5 | 35.2 | 25.5 | 22.3 | 36.9
O=C(NCCS)C1CCc2nc[nH]c2C1 (stereo unspecified) | 39.7 | 26.9 | 39.8 | 32.9 | 33.5 | 41 | 22.8 | 39.1 | 37.3 | 31.9 | 36.2 | 48.4
O=C(CCS)NCCc1noc(COc2ccc(Cl)cc2)n1 |  | 8.9 | 46.1 | 20.4 | 18.8 | 30.8 | 32.4 |  | 19.7 | 16.7 | 13.6 | 40.8
O=C(NCCS)c1cccn1CCN1CCOCC1 | 32 | 15.4 | 44.2 | 24.4 | 33.5 | 31.9 | 23.4 | 41.8 | 26 | 32.9 | 31.8 | 43.2
O=C(NC(Cc1ccccc1)C(=O)NCCS)c1ccccc1 (stereo unspecified) | 31.3 | 8.8 | 17 | 15.5 | 20.7 | 19 | 32.9 | 29 | 13.3 | 16.3 | 13.6 | 23.2
CN(C(=O)CNC(=O)CCS)C1CCCCC1 |  | 11.4 | 22.9 | 30.3 | 36.8 | 21.9 | 20.8 |  | 18.9 | 31.3 | 36.4 | 50.3
O=C(CCS)NCC12COCCN1C(=O)COC2 (stereo unspecified) |  | 8.8 | 27.8 | 33.6 | 27.6 | 32.1 | 8.4 |  | 18.3 | 33.3 | 30.4 | 41.1
CN1CCN(c2nccnc2CNC(=O)CCS)CC1=O |  | 5.3 | 18.7 | 25.1 | 20.3 | 22.4 | 11.9 |  | 17.6 | 18.7 | 19.5 | 35.8
COc1ccccc1Cc1noc(C2CCN(C(=O)CCS)CC2)n1 |  | 15.7 | 19.4 | 35.4 | 16.5 | 30 | 20 |  | 16.2 | 16.2 | 22.2 | 40.9
O=C(NCCS)[C@H]1CCCN1C(=O)c1ccccc1 | 37 | 11.3 | 33.3 | 24.1 | 38.3 | 31.4 | 26.5 | 36.4 | 28.1 | 31.8 | 34.2 | 44
Cc1cnc(C2CCN(C(=O)CCS)CC2)s1 |  | 19 | 35.3 | 40.9 | 36.8 | 42.4 | 35.7 |  | 31.4 | 35.9 | 37.5 | 59.2
CS(=O)(=O)c1cccc(C(NC(=O)CCS)c2ccc(F)cc2F)c1 (stereo unspecified) |  | 11.2 | 23 | 28.8 | 18.6 | 20.9 | 19.4 |  | 11.7 | 22.3 | 17.5 | 43.2
O=C(CC1CN(Cc2ccccc2)CCO1)NCCS (stereo unspecified) | 39.8 | 17 | 39 | 29.4 | 50.6 | 46.4 | 22.5 | 43.3 | 28.8 | 37.2 | 32.6 | 54.5
O=C(COc1c(Cl)cccc1Cl)NCCS | 43.7 | 30 | 28.2 | 16.7 | 26.7 | 24.2 | 48.5 | 31.7 | 21.3 | 31.2 | 17.9 | 30.5
Cc1sc2nc(CN3CCN(C(=O)CCS)CC3)[nH]c(=O)c2c1C |  | 7.1 | 14.9 | 23.3 | 7.4 | 26.4 | 21.1 |  | 7.1 | 12.3 | 9.1 | 37.8
